The other results are listed elsewhere or left out.
Experiments:
Experiment in all cases: glycan array binding signal (z-score within array); higher = stronger binding
Conditions in all cases: glycan notation: IUPAC condensed, linker removed
[1] = biological target: Gal(b1-3)[Fuc(a1-4)]GlcNAc(b1-3)Gal(b1-4)[Fuc(a1-3)]GlcNAc
How it was run: (§1)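 From the Consortium for Functional Glycomics database, 3228 arrays were curated, keeping only those whose protein sequence was available. Binding is given as a within-array Z-score averaged across arrays sharing a protein sequence and across linkers. Negative Z-scores can be read as non-binding.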

[2] = biological target: Gal(b1-3)[GlcNAc(b1-6)]GalNAc
How it was run: as §1

[3] = biological target: Gal(b1-3)[Neu5Ac(a2-6)]GalNAc
How it was run: as §1

[4] = biological target: Gal(b1-3)[Neu5Ac(a2-6)]GlcNAc(b1-6)Gal(b1-4)Glc
How it was run: as §1

[5] = biological target: Gal(b1-3)[Neu5Ac(b2-6)]GalNAc
How it was run: as §1

[6] = biological target: Gal(b1-4)GalNAc(a1-3)[Fuc(a1-2)]Gal(b1-4)GlcNAc
How it was run: as §1

[7] = biological target: Gal(b1-4)GalNAc(b1-3)[Fuc(a1-2)]Gal(b1-4)GlcNAc
How it was run: as §1

Gal(b1-4)Glc = biological target: Gal(b1-4)Glc
How it was run: as §1

Gal(b1-4)Glc6S = biological target: Gal(b1-4)Glc6S
How it was run: as §1

Gal(b1-4)GlcNAc = biological target: Gal(b1-4)GlcNAc
How it was run: as §1

[8] = biological target: Gal(b1-4)GlcNAc(a1-6)Gal(b1-4)GlcNAc
How it was run: as §1

[9] = biological target: Gal(b1-4)GlcNAc(b1-2)Man(a1-3)[Gal(b1-4)GlcNAc(b1-2)Man(a1-6)]Man(b1-4)GlcNAc(b1-4)GlcNAc
How it was run: as §1

[10] = biological target: Gal(b1-4)GlcNAc(b1-3)Gal(b1-3)GlcNAc
How it was run: as §1

[11] = biological target: Gal(b1-4)GlcNAc(b1-3)Gal(b1-4)Glc
How it was run: as §1

[12] = biological target: Gal(b1-4)GlcNAc(b1-3)Gal(b1-4)GlcNAc
How it was run: as §1

[13] = biological target: Gal(b1-4)GlcNAc(b1-3)Gal(b1-4)GlcNAc(b1-3)Gal(b1-4)GlcNAc
How it was run: as §1

[14] = biological target: Gal(b1-4)GlcNAc(b1-3)Gal(b1-4)[Fuc(a1-3)]GlcNAc(b1-3)Gal(b1-4)[Fuc(a1-3)]GlcNAc
How it was run: as §1

[15] = biological target: Gal(b1-4)GlcNAc(b1-3)GalNAc
How it was run: as §1

[16] = biological target: Gal(b1-4)GlcNAc(b1-3)[Gal(b1-4)GlcNAc(b1-6)]Gal(b1-4)GlcNAc
How it was run: as §1

[17] = biological target: Gal(b1-4)GlcNAc(b1-3)[GlcNAc(b1-6)]Gal(b1-4)GlcNAc
How it was run: as §1

[18] = biological target: Gal(b1-4)GlcNAc(b1-6)Gal(b1-4)GlcNAc
How it was run: as §1

[19] = biological target: Gal(b1-4)GlcNAc(b1-6)Gal(b1-4)GlcNAc(b1-6)GalNAc
How it was run: as §1

[20] = biological target: Gal(b1-4)GlcNAc(b1-6)GalNAc
How it was run: as §1

[21] = biological target: Gal(b1-4)GlcNAc(b1-6)[Gal(b1-3)]GalNAc
How it was run: as §1

Gal3S(b1-3)GalNAc = biological target: Gal3S(b1-3)GalNAc
How it was run: as §1

Gal3S(b1-3)GlcNAc = biological target: Gal3S(b1-3)GlcNAc
How it was run: as §1

[22] = biological target: Gal3S(b1-3)[Fuc(a1-4)]GlcNAc
How it was run: as §1

Gal3S(b1-4)Glc = biological target: Gal3S(b1-4)Glc
How it was run: as §1

Gal3S(b1-4)Glc6S = biological target: Gal3S(b1-4)Glc6S
How it was run: as §1

Gal3S(b1-4)GlcNAc = biological target: Gal3S(b1-4)GlcNAc
How it was run: as §1

Gal3S(b1-4)GlcNAc6S = biological target: Gal3S(b1-4)GlcNAc6S
How it was run: as §1

[23] = biological target: Gal3S(b1-4)[Fuc(a1-3)]Glc
How it was run: as §1

Gal3S4S(b1-4)GlcNAc = biological target: Gal3S4S(b1-4)GlcNAc
How it was run: as §1

Gal3S6S(b1-4)GlcNAc = biological target: Gal3S6S(b1-4)GlcNAc
How it was run: as §1

Gal3S6S(b1-4)GlcNAc6S = biological target: Gal3S6S(b1-4)GlcNAc6S
How it was run: as §1

Gal4S(b1-4)GlcNAc = biological target: Gal4S(b1-4)GlcNAc
How it was run: as §1

Gal4S6S(b1-4)GlcNAc = biological target: Gal4S6S(b1-4)GlcNAc
How it was run: as §1

Gal6S(b1-4)Glc = biological target: Gal6S(b1-4)Glc
How it was run: as §1

Gal6S(b1-4)Glc6S = biological target: Gal6S(b1-4)Glc6S
How it was run: as §1

Gal6S(b1-4)GlcNAc = biological target: Gal6S(b1-4)GlcNAc
How it was run: as §1

Gal6S(b1-4)GlcNAc6S = biological target: Gal6S(b1-4)GlcNAc6S
How it was run: as §1

GalNAc(a1-3)Gal = biological target: GalNAc(a1-3)Gal
How it was run: as §1

GalNAc(a1-3)GalNAc = biological target: GalNAc(a1-3)GalNAc
How it was run: as §1

GalNAc(b1-3)Gal = biological target: GalNAc(b1-3)Gal
How it was run: as §1

[24] = biological target: GalNAc(b1-3)Gal(a1-4)Gal(b1-4)GlcNAc
How it was run: as §1

B1: CBM32-4 (Clostridium perfringens), P26831 (protein)
chain: MGSSHHHHHHSSGLVPRGSHMASVYEPSLVDAYVGDDGAKKAVDGDLKTRVKFLGAPSTGDTIVYDLGQEILVDNLKYVVLDTEVDHVRDGKIQLSLDGETWTDAINIGDGVENGVDDMFSTPLKNGYKHGNQSGGIVPIDSAYVEGDNLNQKARYVRILFTAPYRHRWTVINELMINNGEYIPTVNDPT
- glycan array binding signal (z-score) [1]: -0.268
- glycan array binding signal (z-score) [2]: -0.468
- glycan array binding signal (z-score) [3]: -0.271
- glycan array binding signal (z-score) [4]: -0.491
- glycan array binding signal (z-score) [5]: -0.406
- glycan array binding signal (z-score) [6]: -0.545
- glycan array binding signal (z-score) [7]: -0.508
- glycan array binding signal (z-score) (Gal(b1-4)Glc): -0.332
- glycan array binding signal (z-score) (Gal(b1-4)Glc6S): 0.289
- glycan array binding signal (z-score) (Gal(b1-4)GlcNAc): -0.4
- glycan array binding signal (z-score) [8]: -0.326
- glycan array binding signal (z-score) [9]: -0.434
- glycan array binding signal (z-score) [10]: -0.143
- glycan array binding signal (z-score) [11]: -0.422
- glycan array binding signal (z-score) [12]: -0.343
- glycan array binding signal (z-score) [13]: 0.696
- glycan array binding signal (z-score) [14]: -0.457
- glycan array binding signal (z-score) [15]: -0.425
- glycan array binding signal (z-score) [16]: -0.378
- glycan array binding signal (z-score) [17]: -0.257
- glycan array binding signal (z-score) [18]: -0.385
- glycan array binding signal (z-score) [19]: -0.304
- glycan array binding signal (z-score) [20]: -0.391
- glycan array binding signal (z-score) [21]: -0.383
- glycan array binding signal (z-score) (Gal3S(b1-3)GalNAc): -0.264
- glycan array binding signal (z-score) (Gal3S(b1-3)GlcNAc): 0.482
- glycan array binding signal (z-score) [22]: -0.312
- glycan array binding signal (z-score) (Gal3S(b1-4)Glc): 0.108
- glycan array binding signal (z-score) (Gal3S(b1-4)Glc6S): 3.44
- glycan array binding signal (z-score) (Gal3S(b1-4)GlcNAc): -0.195
- glycan array binding signal (z-score) (Gal3S(b1-4)GlcNAc6S): 3.83
- glycan array binding signal (z-score) [23]: -0.252
- glycan array binding signal (z-score) (Gal3S4S(b1-4)GlcNAc): 3.87
- glycan array binding signal (z-score) (Gal3S6S(b1-4)GlcNAc): 1.94
- glycan array binding signal (z-score) (Gal3S6S(b1-4)GlcNAc6S): 5.67
- glycan array binding signal (z-score) (Gal4S(b1-4)GlcNAc): -0.149
- glycan array binding signal (z-score) (Gal4S6S(b1-4)GlcNAc): 2.67
- glycan array binding signal (z-score) (Gal6S(b1-4)Glc): 0.459
- glycan array binding signal (z-score) (Gal6S(b1-4)Glc6S): 4.96
- glycan array binding signal (z-score) (Gal6S(b1-4)GlcNAc): -0.241
- glycan array binding signal (z-score) (Gal6S(b1-4)GlcNAc6S): 4.9
- glycan array binding signal (z-score) (GalNAc(a1-3)Gal): -0.294
- glycan array binding signal (z-score) (GalNAc(a1-3)GalNAc): -0.439
- glycan array binding signal (z-score) (GalNAc(b1-3)Gal): -0.365
- glycan array binding signal (z-score) [24]: -0.458
